The target in test [1] is AGO2 WT (phosphosite mutant background) S387D + S824A + S828D + S831D + S834A (UniProt Q9UKV8). Briefly: RNA Bind-n-Seq (nitrocellulose filter binding and sequencing). The conditions noted are these: constant regions annealed to DNA blockers; guide miR-122 5' phosphate; 30 mM Tris pH 8.0, 100 mM potassium acetate, 2 mM magnesium acetate, 0.5 mM TCEP, 0.005% NP-40, 0.01 mg/ml yeast tRNA; 3 nM AGO2-miR-122, 100 nM RNA library …; high values mean tight binding.

The target in test [2] is AGO2 F182del S387D + S824A + S828D + S831D + S834A + del182-182 (UniProt Q9UKV8). The test is described as above. To be noted: constant regions annealed to DNA blockers; guide miR-122 5' phosphate; 30 mM Tris pH 8.0, 100 mM potassium acetate, 2 mM magnesium acetate, 0.5 mM TCEP, 0.005% NP-40, 0.01 mg/ml yeast tRNA; 3 nM AGO2-miR-122, 100 nM RNA library …; high values mean tight binding.

This is a selection; strong and weak results do not stand in their true shares. At the low end of the ranking, values are background and their order means little. Some of the results follow.

Regarding “GAGUUCUACAGUCCGACGAUCCCAACGCACCCUGCACCUGGAAUUCUCGGGUGCCAA / UGGAGUGUGACAAUGGUGUUUG / GATCGTCGGACTGTAGAACTC / TTGGCACCCGAGAATTCCA”, the binding signal (fold enrichment over input) in test [1] was found to be 0.116. Still for that read-out and setting: the value for “GAGUUCUACAGUCCGACGAUCCCAACAUACCUCACACCUGGAAUUCUCGGGUGCCAA / UGGAGUGUGACAAUGGUGUUUG / GATCGTCGGACTGTAGAACTC / TTGGCACCCGAGAATTCCA” was 0.138; that for “GAGUUCUACAGUCCGACGAUCCCAACGCAUCUCACACCUGGAAUUCUCGGGUGCCAA / UGGAGUGUGACAAUGGUGUUUG / GATCGTCGGACTGTAGAACTC / TTGGCACCCGAGAATTCCA” was 0.126; that for “GAGUUCUACAGUCCGACGAUCCCAACGCGUCCCACACCUGGAAUUCUCGGGUGCCAA / UGGAGUGUGACAAUGGUGUUUG / GATCGTCGGACTGTAGAACTC / TTGGCACCCGAGAATTCCA” was 0.126.

Regarding “GAGUUCUACAGUCCGACGAUCCCAACAUAUCCCACACCUGGAAUUCUCGGGUGCCAA / UGGAGUGUGACAAUGGUGUUUG / GATCGTCGGACTGTAGAACTC / TTGGCACCCGAGAATTCCA”, the binding signal (fold enrichment over input) in test [1] was 0.119. As for “GAGUUCUACAGUCCGACGAUCCCAACACACUUUACACCUGGAAUUCUCGGGUGCCAA / UGGAGUGUGACAAUGGUGUUUG / GATCGTCGGACTGTAGAACTC / TTGGCACCCGAGAATTCCA”, in test [1], the binding signal (fold enrichment over input) is 0.133.

As to “GAGUUCUACAGUCCGACGAUCCCAACGCGUUCCACACCUGGAAUUCUCGGGUGCCAA / UGGAGUGUGACAAUGGUGUUUG / GATCGTCGGACTGTAGAACTC / TTGGCACCCGAGAATTCCA”, the binding signal (fold enrichment over input) in test [1] came to 0.119. Take “GAGUUCUACAGUCCGACGAUCCCAACGUACCCCACACCUGGAAUUCUCGGGUGCCAA / UGGAGUGUGACAAUGGUGUUUG / GATCGTCGGACTGTAGAACTC / TTGGCACCCGAGAATTCCA”: in test [1], the binding signal (fold enrichment over input) was 0.118. Still for that read-out and setting: the value for “GAGUUCUACAGUCCGACGAUCCCAACACACUUCACACCUGGAAUUCUCGGGUGCCAA / UGGAGUGUGACAAUGGUGUUUG / GATCGTCGGACTGTAGAACTC / TTGGCACCCGAGAATTCCA” was 0.24; that for “GAGUUCUACAGUCCGACGAUCCCAACGCAUUCCACACCUGGAAUUCUCGGGUGCCAA / UGGAGUGUGACAAUGGUGUUUG / GATCGTCGGACTGTAGAACTC / TTGGCACCCGAGAATTCCA” was 0.182; that for “GAGUUCUACAGUCCGACGAUCCCAACGCACCUUACACCUGGAAUUCUCGGGUGCCAA / UGGAGUGUGACAAUGGUGUUUG / GATCGTCGGACTGTAGAACTC / TTGGCACCCGAGAATTCCA” was 0.132. The same measure, in the same setting: the value for “GAGUUCUACAGUCCGACGAUCCCAACAUGUCCCACACCUGGAAUUCUCGGGUGCCAA / UGGAGUGUGACAAUGGUGUUUG / GATCGTCGGACTGTAGAACTC / TTGGCACCCGAGAATTCCA” was 0.155; that for “GAGUUCUACAGUCCGACGAUCCCAACGCAUUUUACACCUGGAAUUCUCGGGUGCCAA / UGGAGUGUGACAAUGGUGUUUG / GATCGTCGGACTGTAGAACTC / TTGGCACCCGAGAATTCCA” was 0.119; that for “GAGUUCUACAGUCCGACGAUCCCAACGUACUUCACACCUGGAAUUCUCGGGUGCCAA / UGGAGUGUGACAAUGGUGUUUG / GATCGTCGGACTGTAGAACTC / TTGGCACCCGAGAATTCCA” was 0.125. On to “GAGUUCUACAGUCCGACGAUCCCAACGUGCCCCACACCUGGAAUUCUCGGGUGCCAA / UGGAGUGUGACAAUGGUGUUUG / GATCGTCGGACTGTAGAACTC / TTGGCACCCGAGAATTCCA”, for which the binding signal (fold enrichment over input) in test [1] worked out at 0.123. As to “GAGUUCUACAGUCCGACGAUCCCAACGUGUUCCACACCUGGAAUUCUCGGGUGCCAA / UGGAGUGUGACAAUGGUGUUUG / GATCGTCGGACTGTAGAACTC / TTGGCACCCGAGAATTCCA”, the binding signal (fold enrichment over input) in test [1] amounted to 0.112. The same measure, in the same setting: the value for “GAGUUCUACAGUCCGACGAUCCCAACACGCCCCACACCUGGAAUUCUCGGGUGCCAA / UGGAGUGUGACAAUGGUGUUUG / GATCGTCGGACTGTAGAACTC / TTGGCACCCGAGAATTCCA” was 0.123; that for “GAGUUCUACAGUCCGACGAUCCCAACAUAUUCCACACCUGGAAUUCUCGGGUGCCAA / UGGAGUGUGACAAUGGUGUUUG / GATCGTCGGACTGTAGAACTC / TTGGCACCCGAGAATTCCA” was 0.121; that for “GAGUUCUACAGUCCGACGAUCCCAACACGUCUUACACCUGGAAUUCUCGGGUGCCAA / UGGAGUGUGACAAUGGUGUUUG / GATCGTCGGACTGTAGAACTC / TTGGCACCCGAGAATTCCA” was 0.13.

Turning to “GAGUUCUACAGUCCGACGAUCCCAACGCACCCUACACCUGGAAUUCUCGGGUGCCAA / UGGAGUGUGACAAUGGUGUUUG / GATCGTCGGACTGTAGAACTC / TTGGCACCCGAGAATTCCA”, the binding signal (fold enrichment over input) in test [1] turned out to be 0.113. Turning to “GAGUUCUACAGUCCGACGAUCCCAACACGUUCUACACCUGGAAUUCUCGGGUGCCAA / UGGAGUGUGACAAUGGUGUUUG / GATCGTCGGACTGTAGAACTC / TTGGCACCCGAGAATTCCA”, the binding signal (fold enrichment over input) in test [1] stood at 0.0986. In the case of “GAGUUCUACAGUCCGACGAUCCCAACGCACCUCACACCUGGAAUUCUCGGGUGCCAA / UGGAGUGUGACAAUGGUGUUUG / GATCGTCGGACTGTAGAACTC / TTGGCACCCGAGAATTCCA”, the binding signal (fold enrichment over input) in test [1] is 0.17. Regarding “GAGUUCUACAGUCCGACGAUCCCAACACGCUUCACACCUGGAAUUCUCGGGUGCCAA / UGGAGUGUGACAAUGGUGUUUG / GATCGTCGGACTGTAGAACTC / TTGGCACCCGAGAATTCCA”, the binding signal (fold enrichment over input) in test [1] turned out to be 0.133.

With “GAGUUCUACAGUCCGACGAUCCCAACGUAUCCCACACCUGGAAUUCUCGGGUGCCAA / UGGAGUGUGACAAUGGUGUUUG / GATCGTCGGACTGTAGAACTC / TTGGCACCCGAGAATTCCA”, the binding signal (fold enrichment over input) in test [1] came out at 0.162. Same read-out and setting: the value for “GAGUUCUACAGUCCGACGAUCCCAACACACUCUACACCUGGAAUUCUCGGGUGCCAA / UGGAGUGUGACAAUGGUGUUUG / GATCGTCGGACTGTAGAACTC / TTGGCACCCGAGAATTCCA” was 0.587; that for “GAGUUCUACAGUCCGACGAUCCCAACGCACUCUGCACCUGGAAUUCUCGGGUGCCAA / UGGAGUGUGACAAUGGUGUUUG / GATCGTCGGACTGTAGAACTC / TTGGCACCCGAGAATTCCA” was 0.143. Turning to “GAGUUCUACAGUCCGACGAUCCCAACGCGUUUCACACCUGGAAUUCUCGGGUGCCAA / UGGAGUGUGACAAUGGUGUUUG / GATCGTCGGACTGTAGAACTC / TTGGCACCCGAGAATTCCA”, the binding signal (fold enrichment over input) in test [1] is 0.125. Still for that read-out and setting: the value for “GAGUUCUACAGUCCGACGAUCCCAACACACCCUGCACCUGGAAUUCUCGGGUGCCAA / UGGAGUGUGACAAUGGUGUUUG / GATCGTCGGACTGTAGAACTC / TTGGCACCCGAGAATTCCA” was 0.115; that for “GAGUUCUACAGUCCGACGAUCCCAACACAUUCCGCACCUGGAAUUCUCGGGUGCCAA / UGGAGUGUGACAAUGGUGUUUG / GATCGTCGGACTGTAGAACTC / TTGGCACCCGAGAATTCCA” was 0.0998; that for “GAGUUCUACAGUCCGACGAUCCCAACGUGUCUCACACCUGGAAUUCUCGGGUGCCAA / UGGAGUGUGACAAUGGUGUUUG / GATCGTCGGACTGTAGAACTC / TTGGCACCCGAGAATTCCA” was 0.126. Regarding “GAGUUCUACAGUCCGACGAUCCCAACAUGUUCCACACCUGGAAUUCUCGGGUGCCAA / UGGAGUGUGACAAUGGUGUUUG / GATCGTCGGACTGTAGAACTC / TTGGCACCCGAGAATTCCA”, the binding signal (fold enrichment over input) in test [1] came to 0.148. In the case of “GAGUUCUACAGUCCGACGAUCCCAACGCGCUUCACACCUGGAAUUCUCGGGUGCCAA / UGGAGUGUGACAAUGGUGUUUG / GATCGTCGGACTGTAGAACTC / TTGGCACCCGAGAATTCCA”, the binding signal (fold enrichment over input) in test [1] came out at 0.123. On the same count and under the same terms, the value for “GAGUUCUACAGUCCGACGAUCCCAACGCACCCCACACCUGGAAUUCUCGGGUGCCAA / UGGAGUGUGACAAUGGUGUUUG / GATCGTCGGACTGTAGAACTC / TTGGCACCCGAGAATTCCA” was 0.164. In the case of “GAGUUCUACAGUCCGACGAUCCCAACGUGCUCCACACCUGGAAUUCUCGGGUGCCAA / UGGAGUGUGACAAUGGUGUUUG / GATCGTCGGACTGTAGAACTC / TTGGCACCCGAGAATTCCA”, the binding signal (fold enrichment over input) in test [1] turned out to be 0.17. On to “GAGUUCUACAGUCCGACGAUCCCAACGUACUCCACACCUGGAAUUCUCGGGUGCCAA / UGGAGUGUGACAAUGGUGUUUG / GATCGTCGGACTGTAGAACTC / TTGGCACCCGAGAATTCCA”, for which the binding signal (fold enrichment over input) in test [1] stood at 0.714. “GAGUUCUACAGUCCGACGAUCCCAACGCGCCCCACACCUGGAAUUCUCGGGUGCCAA / UGGAGUGUGACAAUGGUGUUUG / GATCGTCGGACTGTAGAACTC / TTGGCACCCGAGAATTCCA”: the values for the binding signal (fold enrichment over input) in test [1] and in test [2] were 0.115 and 0.0962, respectively.

As to “GAGUUCUACAGUCCGACGAUCCCAACGUGCUUUACACCUGGAAUUCUCGGGUGCCAA / UGGAGUGUGACAAUGGUGUUUG / GATCGTCGGACTGTAGAACTC / TTGGCACCCGAGAATTCCA”, the binding signal (fold enrichment over input) stood at 0.105 in test [1] and 0.0604 in test [2]. The like results for “GAGUUCUACAGUCCGACGAUCCCAACGUGCUCUGCACCUGGAAUUCUCGGGUGCCAA / UGGAGUGUGACAAUGGUGUUUG / GATCGTCGGACTGTAGAACTC / TTGGCACCCGAGAATTCCA” were, in that order, 0.123 and 0.0585. Regarding “GAGUUCUACAGUCCGACGAUCCCAACGCGCUUUGCACCUGGAAUUCUCGGGUGCCAA / UGGAGUGUGACAAUGGUGUUUG / GATCGTCGGACTGTAGAACTC / TTGGCACCCGAGAATTCCA”, the binding signal (fold enrichment over input) in test [1] is 0.0851; in test [2], 0.031. On to “GAGUUCUACAGUCCGACGAUCCCAACAUACCCCGCACCUGGAAUUCUCGGGUGCCAA / UGGAGUGUGACAAUGGUGUUUG / GATCGTCGGACTGTAGAACTC / TTGGCACCCGAGAATTCCA”, for which the binding signal (fold enrichment over input) in test [1] amounted to 0.0919; in test [2], 0.058. On to “GAGUUCUACAGUCCGACGAUCCCAACACAUCCUGCACCUGGAAUUCUCGGGUGCCAA / UGGAGUGUGACAAUGGUGUUUG / GATCGTCGGACTGTAGAACTC / TTGGCACCCGAGAATTCCA”, for which the binding signal (fold enrichment over input) in test [1] turned out to be 0.144; in test [2] it was 0.153.

The values above are taken from paper PMC12529666.
